# Experimental data from paper PMC4336329 (PLoS ONE, 2015).
# In all, about 310,000 compounds went through this assay and about 2,200 (0.71%) showed an effect of 50% or more. The effect is printed as a negative number. The list shows a part of the results.
# Molecular target: human ether-à-go-go-related gene (hERG) potassium channel (human, UniProt Q12809)
# Experiment: primary screen, population patch clamp on CHO cells stably expressing hERG
# Sequence of human ether-à-go-go-related gene (hERG) potassium channel (Q12809 whole entry, looked up): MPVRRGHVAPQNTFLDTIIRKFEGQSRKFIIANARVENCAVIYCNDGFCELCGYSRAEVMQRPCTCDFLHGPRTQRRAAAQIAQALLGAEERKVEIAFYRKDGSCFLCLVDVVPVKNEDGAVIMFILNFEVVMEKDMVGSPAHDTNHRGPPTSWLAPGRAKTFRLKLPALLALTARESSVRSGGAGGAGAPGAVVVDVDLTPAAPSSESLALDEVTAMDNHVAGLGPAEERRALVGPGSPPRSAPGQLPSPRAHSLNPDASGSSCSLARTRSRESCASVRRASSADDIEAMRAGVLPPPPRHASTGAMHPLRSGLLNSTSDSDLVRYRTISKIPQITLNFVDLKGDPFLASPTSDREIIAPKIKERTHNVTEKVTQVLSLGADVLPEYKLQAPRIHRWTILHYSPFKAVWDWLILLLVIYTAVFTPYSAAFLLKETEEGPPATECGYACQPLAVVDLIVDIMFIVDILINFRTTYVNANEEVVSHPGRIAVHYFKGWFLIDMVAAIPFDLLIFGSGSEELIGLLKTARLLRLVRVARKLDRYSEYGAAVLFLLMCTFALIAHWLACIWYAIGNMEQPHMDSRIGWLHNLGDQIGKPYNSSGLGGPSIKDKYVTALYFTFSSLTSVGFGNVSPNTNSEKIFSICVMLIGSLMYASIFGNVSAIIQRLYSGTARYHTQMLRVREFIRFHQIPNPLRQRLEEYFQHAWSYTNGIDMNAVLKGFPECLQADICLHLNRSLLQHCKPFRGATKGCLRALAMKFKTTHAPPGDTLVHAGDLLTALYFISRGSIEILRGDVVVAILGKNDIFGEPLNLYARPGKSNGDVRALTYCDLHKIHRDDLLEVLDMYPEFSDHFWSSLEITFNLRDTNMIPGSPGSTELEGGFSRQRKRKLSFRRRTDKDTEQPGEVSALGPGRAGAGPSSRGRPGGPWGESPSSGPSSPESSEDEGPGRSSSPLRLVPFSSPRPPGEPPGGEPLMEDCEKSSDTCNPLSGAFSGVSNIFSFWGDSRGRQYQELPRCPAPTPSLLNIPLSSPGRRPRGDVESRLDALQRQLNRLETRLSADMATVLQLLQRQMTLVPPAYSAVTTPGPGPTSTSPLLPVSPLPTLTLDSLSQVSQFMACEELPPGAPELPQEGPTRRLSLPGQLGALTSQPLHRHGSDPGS
row,Compound,"hERG current change (%, negative = inhibition) at 1uM [%]"
1,Cc1cc(/C([O-])=C(/C(=S)Nc2ccc(F)cc2)[n+]2ccccc2)c(C)n1-c1ccc(F)cc1,-1.77
2,CCCC(=O)Nc1ccc2nc(SCC(=O)Nc3ccc(N4CCOCC4)c(Cl)c3)sc2c1,0.66
3,CCN(C(=O)N1CCOCC1)c1ccccc1,14.6
4,O=C(O)c1ccc2c(c1)OCCO2,6.23
5,OCCSc1nc(N2CCOCC2)nc(N2CCOCC2)n1,13.7
6,CCCc1nn(C)c2c1C(c1ccncc1)C(C#N)=C(N)O2 (stereo not shown),26.3
7,CC1CCCC(C)N1/N=C/C=C/c1ccccc1[N+](=O)[O-] (stereo not shown),14.6
8,CCC(=O)N1CCN(c2ccc(OC)cc2[N+](=O)[O-])CC1,-0.687
9,NS(=O)(=O)c1ccc(CCNC(=O)Nc2ccc(Cl)c(Cl)c2)cc1,6.75
10,CCCn1c(CN2CCN(C(C)=O)CC2)nc2cc(S(=O)(=O)N(C)C)ccc21,25.5
11,Nc1cccc(N=Cc2c(O)n(Cc3ccc(F)cc3)c(=O)[nH]c2=O)c1,13.5
12,CS(=O)(=O)Nc1ccc(C(=O)Nc2cccc([N+](=O)[O-])c2)cc1,-5.21
13,CCn1c(/C=C\c2ccccc2C)nc2ccccc2c1=O,-1.58
14,CNC(=S)N(CCc1c(C)[nH]c2ccc(Cl)cc12)Cc1cccnc1,10.9
15,COc1ccccc1/C=C/CN1CCC(n2nccc2NC(=O)CCc2ccccc2)CC1,-24.8
16,O=C(NCCN1CCN(c2ccccc2)CC1)Nc1ccccc1Cl,-5.21
17,COc1cc(S(=O)(=O)N2CCN(c3ccc(F)cc3)CC2)ccc1Cl,2.91
18,Cc1ccccc1Nc1c(-c2ccccc2)nc2ncccn12,0.738
19,COc1ccc(OC)c(CCNC(=O)c2ccc3c(=O)[nH]c4c(C(=O)NC(C)C)sc(=S)n4c3c2)c1,8.45
20,O=C(N/N=C/c1cccc([N+](=O)[O-])c1)C1CC(=O)N(c2ccc(Br)cc2)C1 (stereo not shown),-15
21,COc1ccccc1C(=O)N/C(=C\c1ccc(Br)cc1)C(=O)NCCCO,-0.677
22,COc1cccc(/C=C2\SC(=S)N(NS(=O)(=O)c3ccc(C)cc3)C2=O)c1OC,11.6

row,Compound,"hERG current change (%, negative = inhibition) at 1uM [%]"
1,CC(=O)c1ccc(NC(=O)CCS(=O)(=O)c2ccc3c(c2)n(C)c(=O)c(=O)n3C)cc1,10.6
2,CC(C)c1ccccc1-n1c(-c2cccnc2)n[nH]c1=S,14
3,CN1CCC(=NNC(=O)C(=O)NC(C)(C)C)CC1,-0.402
4,COC(=O)C(CCCCN1C(=O)C2C3C=CC(C3)C2C1=O)N1C(=O)C2C3C=CC(C3)C2C1=O (stereo not shown),11.9
5,COc1ccc(CNCc2ccc3c(c2)OCO3)cc1Br.O=C(O)C(=O)O,-1.1
6,C(=NCCCN1CCOCC1)c1ccc2c(c1)OCO2,16.1
7,COc1ccc(-n2c3c(c(=O)[nH]c2=O)C(C(F)(F)F)(C(F)(F)F)N=C(CC(C)C)N3)cc1,-5.44
8,O=C(c1cc2ccccc2cc1O)N1CCN(c2ccccc2O)CC1,-5.37
9,O=C(C1CCCN(c2ncnc3c2nc2n3CCCCC2)C1)N1CCN(c2cccc(Cl)c2)CC1 (stereo not shown),-14.8
10,CCOC(=O)CSc1nc2c(cnn2-c2ccc(F)cc2)c(=O)[nH]1,11.5
11,COc1ccc(C2c3c(ncn(CCN4CCOCC4)c3=N)Oc3ccc4ccccc4c32)cc1OC (stereo not shown),2.81
12,CC(C)(C)c1csc(N/N=C/c2cccnc2)n1,5.61
13,O=C(COc1ccc2ccccc2c1)N/N=C/C1CC=CCC1 (stereo not shown),0.937
14,CN(CC(=O)NCCc1ccc(S(N)(=O)=O)cc1)c1ccccc1,13
15,COc1ccc(CC(=O)N/N=C(\C)c2ccccn2)cc1,16.2
16,O=C(COc1ccc2c(c1)oc(=O)c1ccccc12)NCCCN1CCOCC1,0.293
17,O=C(CN1C(=O)/C(=C\c2cccc(Cl)c2)Oc2ccccc21)N1CCN(c2ccccn2)CC1,14.6
18,Cc1cccc(NC(=S)N2CCCCC2c2cccnc2)c1C (stereo not shown),8.61
19,CCn1ccnc1CN(C)C(=O)C1CCC(=O)N(CCc2cccc(F)c2)C1 (stereo not shown),-0.0147
20,O=C(N1CCCCC1)N1CCN(S(=O)(=O)c2cccc([N+](=O)[O-])c2)CC1,3.91
21,COC(C(=O)Nc1c(F)cccc1F)c1ccccc1 (stereo not shown),7.76
